{
  "source": "PubChem BioAssay AID1466",
  "about": "(National Center for Advancing Translational Sciences (NCATS), 2008)",
  "note": "The whole screen tested about 200,000 compounds, of which about 10 (0.005%) were called active. Inconclusive means that the source gave no clear call. Such entries were picked first, then a sample of the others. Calls follow the shape of the dose curve; as a rule, active = well fitted inhibition curve with a large enough effect; inconclusive = small, poorly fitted or top-dose-only effect, or effect the other way, or another doubt; inactive = no such curve, though single readings can be large or run the other way. Potencies of inconclusive entries are left out as doubtful fits. Potency is read from the fitted curve at half-maximal effect; tags tell the direction and shape of the fitted curve.",
  "data": [
    {"biological_target": "Lysosomal alpha-glucosidase (Homo sapiens) (UniProt P10253)", "experiment": "qHTS Assay for Inhibitors of Human alpha-Glucosidase as a Potential Chaperone Treatment of Pompe Disease;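 as to activity change, negative = inhibition: plate controls were uninhibited enzyme wells for no effect and no-enzyme background for full effect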", "conditions": "purified human GAA, 4-MU-alpha-glucoside fluorescence; activity change, negative = inhibition: at 76.9 µM (top of the series) unless noted", "summary_of_the_method": "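Human enzyme at 4 nM with 400 uM 4-methylumbelliferyl-alpha-D-pyranoside, citrate/phosphate buffer pH 5.0, 0.005% Tween-20, 20 min at room temperature. Compounds up to 77 uM. 4-MU fluorescence (Ex 365/Em 440) read after NaOH/glycine stop; AC50 from Hill fit.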", "values": [
      {"molecule": "Cc1cccc(C)c1NC(=O)CCCSc1nnnn1C", "Potency": "inconclusive [inhibitor, single point]"},
      {"molecule": "Cc1cc(OCC(=O)c2ccc(Br)cc2)ccc1N1C(=O)CCC1=O", "activity change, negative = inhibition": "inconclusive: 16% [activator]"},
      {"molecule": "Cc1cccn2c(=O)c3cc(C(=O)N4CCN(C(=O)c5ccco5)CC4)n(C)c3nc12", "Potency": "inconclusive [activator, partial curve]"},
      {"molecule": "Cc1ccc(CN2CCN(C/C(Cl)=C/c3ccccc3)CC2CCO)o1", "note": "(centres undefined)", "Potency": "inconclusive [inhibitor, partial curve]"},
      {"molecule": "O=S(=O)(NCC1CCCO1)c1cc(Br)c(Br)s1", "note": "(centres undefined)", "Potency": "inconclusive [inhibitor, single point]"},
      {"molecule": "Cc1ccc(C(=O)N/C(=C/c2cccs2)C(=O)NCC2CCCO2)cc1", "note": "(centres undefined)", "Potency": "inconclusive [inhibitor, full curve]"},
      {"molecule": "O=C(c1ccc(COc2ccccc2Cl)o1)N1CCN(Cc2ccc3c(c2)OCO3)CC1", "Potency": "inconclusive [inhibitor, single point]"},
      {"molecule": "CCCCCNC(=O)c1cc(S(=O)(=O)N2CCCCC2)ccc1F", "Potency": "inconclusive [inhibitor, single point]"},
      {"molecule": "Cc1c2cnn(CC(=O)Nc3c(F)c(F)cc(F)c3F)c(=O)c2c(C)n1Cc1ccccc1F", "Potency": "inactive"},
      {"molecule": "O=C(CSc1nnc(-c2n[nH]c3ccccc23)n1-c1ccccc1)Nc1ccccc1Cl", "Potency": "inconclusive [inhibitor, partial curve]"},
      {"molecule": "Cc1ccc(NC(=O)COC(=O)CC2CCCC2)cc1Cl", "Potency": "inconclusive [inhibitor, partial curve]"},
      {"molecule": "CCOc1cccc(C(=O)Nc2ccncc2)c1", "activity change, negative = inhibition": "inconclusive: 15.8% [activator]"},
      {"molecule": "CN1CCN(CCCN2c3ccccc3Sc3ccc(Cl)cc32)CC1", "Potency": "inconclusive [inhibitor, single point]"},
      {"molecule": "O=C(CCc1nnc(CCCc2ccccc2)o1)NCCCC1CCCC1", "activity change, negative = inhibition": "inconclusive: -15.1% [inhibitor]"},
      {"molecule": "CCCN1CNC(=S)N(CCc2ccccc2)C1", "Potency": "inconclusive [inhibitor, single point]"},
      {"molecule": "CC(C)(C)C1CCC(=NNC(=O)c2cc(-c3ccccc3)n[nH]2)CC1", "note": "(centres undefined)", "Potency": "inconclusive [inhibitor, single point]"},
      {"molecule": "N/C(=N\\OC(=O)c1cccs1)c1cccc(Br)c1", "activity change, negative = inhibition": "inconclusive: 4.24% [activator]"},
      {"molecule": "Cc1cc(C)cc(-n2nnc(C(=O)NCc3ccco3)c2N)c1", "Potency": "inactive"},
      {"molecule": "CC(C)(C)c1ccc(OCCC(=O)Nc2cccc(S(=O)(=O)N3CCCCC3)c2)cc1", "Potency": "inconclusive [inhibitor, full curve]"}
    ]}
  ]
}
